{"source": "patent US20260137707A1", "about": "“METHODS OF MODULATING ATXN2 EXPRESSION” (University of Utah Research Foundation, priority 2022, published 2026)", "test_system": "H2 cells and S1 cells", "key": {"[1]": {"conditions": "average MTT of H2 and S1 cells, 1 μm"}, "[2]": {"conditions": "average MTT of H2 and S1 cells, 10 μm"}}, "note": "Structures can show the parent of a compound that is named as a salt. Where two headings read alike, the source gives them in different places.", "data": [{"compound": "CC[C@H]1CN2CCc3cc(OC)c(OC)cc3[C@@H]2C[C@@H]1C[C@H]1NCCc2cc(O)c(OC)cc21.Cl.Cl.O.O.O.O.O.O.O", "note": "[Cephaeline dihydrochloride heptahydrate]", "values": [{"measurement": "MTT at 1 μm", "setting": "[1]", "value": 59.14}, {"measurement": "MTT at 10 μm", "setting": "[2]", "value": 62.1}]}, {"compound": "CC[C@H]1CN2CCc3cc(OC)c(OC)cc3[C@@H]2C[C@@H]1C[C@H]1NCCc2cc(OC)c(OC)cc21", "note": "[Emetine dihydrochloride]", "values": [{"measurement": "MTT at 1 μm", "setting": "[1]", "value": 59.72}, {"measurement": "MTT at 10 μm", "setting": "[2]", "value": 58.08}]}, {"compound": "CC(=O)O[C@H]1C[C@H](O[C@H]2[C@@H](O)C[C@H](O[C@H]3[C@@H](O)C[C@H](O[C@H]4CC[C@@]5(C)[C@H](CC[C@@H]6[C@@H]5C[C@@H](O)[C@]5(C)[C@@H](C7=CC(=O)OC7)CC[C@]65O)C4)O[C@@H]3C)O[C@@H]2C)O[C@H](C)[C@H]1O[C@@H]1O[C@H](CO)[C@@H](O)[C@H](O)[C@H]1O", "note": "[LANATOSIDE C]", "values": [{"measurement": "MTT at 1 μm", "setting": "[1]", "value": 38.04}, {"measurement": "MTT at 1 μm", "setting": "average MTT of H2 and S1 cells, 1 μm, listed as Lanatoside C", "value": 35.01}, {"measurement": "MTT at 10 μm", "setting": "[2]", "value": 35.97}, {"measurement": "MTT at 10 μm", "setting": "average MTT of H2 and S1 cells, 10 μm, listed as Lanatoside C", "value": 35.63}]}, {"compound": "CO[C@H]1C[C@H](O[C@H]2CC[C@]3(C)[C@H]4CC[C@]5(C)[C@@H](C6=CC(=O)OC6)CC[C@]5(O)[C@@H]4CC[C@]3(O)C2)O[C@H](C)[C@H]1O", "note": "[PERIPLOCYMARIN]", "values": [{"measurement": "MTT at 1 μm", "setting": "[1]", "value": 58.7}, {"measurement": "MTT at 10 μm", "setting": "[2]", "value": 37.1}]}, {"compound": "C[C@H]1O[C@@H](O[C@H]2CC[C@]3(C=O)[C@H]4CC[C@]5(C)[C@@H](C6=CC(=O)OC6)CC[C@]5(O)[C@@H]4CC[C@]3(O)C2)C[C@H](O)[C@@H]1O", "note": "[Helveticoside]", "values": [{"measurement": "MTT at 1 μm", "setting": "[1]", "value": 98.96}, {"measurement": "MTT at 10 μm", "setting": "[2]", "value": 37.06}]}, {"compound": "C[C@@H]1O[C@@H](O[C@H]2C[C@@H](O)[C@]3(CO)[C@H]4[C@H](O)C[C@]5(C)[C@@H](C6=CC(=O)OC6)CC[C@]5(O)[C@@H]4CC[C@]3(O)C2)[C@H](O)[C@H](O)[C@H]1O", "note": "[OUABAIN]", "values": [{"measurement": "MTT at 1 μm", "setting": "[1]", "value": 51.75}, {"measurement": "MTT at 10 μm", "setting": "[2]", "value": 60.4}]}, {"compound": "CO[C@H]1[C@@H](O)[C@@H](C)O[C@@H](O[C@H]2CC[C@]3(C)[C@H]4CC[C@]5(C)[C@@H](C6=CC(=O)OC6)CC[C@]5(O)[C@@H]4CC[C@]3(O)C2)[C@@H]1O", "note": "[EMICYMARIN]", "values": [{"measurement": "MTT at 1 μm", "setting": "[1]", "value": 111.9}, {"measurement": "MTT at 10 μm", "setting": "[2]", "value": 53.42}]}, {"compound": "C[C@]12CC[C@H](O)C[C@H]1CC[C@@H]1[C@@H]2[C@H](O)C[C@]2(C)[C@@H](C3=CC(=O)OC3)CC[C@]12O", "note": "[SARMENTOGENIN]", "values": [{"measurement": "MTT at 1 μm", "setting": "[1]", "value": 45.81}, {"measurement": "MTT at 10 μm", "setting": "[2]", "value": 41.24}]}, {"compound": "C[C@]12CC[C@H]3[C@@H](CC[C@]4(O)C[C@@H](O)CC[C@]34C=O)[C@@]1(O)CC[C@@H]2C1=CC(=O)OC1", "note": "[STROPHANTHIDIN]", "values": [{"measurement": "MTT at 1 μm", "setting": "1 µM", "value": 40.11}, {"measurement": "MTT at 10 μm", "setting": "10 µM", "value": 45.52}]}, {"compound": "C[C@]12CC[C@H](O)C[C@H]1CC[C@@H]1[C@@H]2CC[C@]2(C)[C@@H](C3=CC(=O)OC3)CC[C@]12O", "note": "[Digitoxigenin]", "values": [{"measurement": "MTT at 1 μm", "setting": "[1]", "value": 81.65}, {"measurement": "MTT at 10 μm", "setting": "[2]", "value": 74.85}]}, {"compound": "C[C@]12CC[C@H](O)C[C@H]1CC[C@@H]1[C@@H]2C[C@@H](O)[C@]2(C)[C@@H](C3=CC(=O)OC3)CC[C@]12O", "note": "[Digoxigenin]", "values": [{"measurement": "MTT at 1 μm", "setting": "[1]", "value": 60.4}, {"measurement": "MTT at 10 μm", "setting": "[2]", "value": 31.57}]}, {"compound": "STROPH[…] LACTONE ACETATE", "values": [{"measurement": "MTT at 1 μm", "setting": "[1]", "value": 43.59}, {"measurement": "MTT at 10 μm", "setting": "[2]", "value": 36.63}]}, {"compound": "COc1cccc(C2(O)CCCCC2CN(C)C)c1", "note": "(stereo not shown) [Tramadol]", "values": [{"measurement": "MTT at 1 μm", "setting": "[1]", "value": 128.2}, {"measurement": "MTT at 10 μm", "setting": "[2]", "value": 112.8}]}, {"compound": "CNC1CC(c2ccc(Cl)c(Cl)c2)c2ccccc21", "note": "(stereo not shown) [Indatraline]", "values": [{"measurement": "MTT at 1 μm", "setting": "[1]", "value": 116.5}, {"measurement": "MTT at 10 μm", "setting": "[2]", "value": 13.49}]}, {"compound": "C[C@@H]1O[C@@H](O[C@@H]2C=C3CC[C@@H]4[C@H](CC[C@]5(C)[C@@H](c6ccc(=O)oc6)CC[C@]45O)[C@@]3(C)CC2)[C@H](O)[C@H](O)[C@H]1O", "note": "[Proscillaridin A]", "values": [{"measurement": "MTT at 1 μm", "setting": "[1]", "value": 47.75}, {"measurement": "MTT at 10 μm", "setting": "[2]", "value": 44.97}]}, {"compound": "CCCCCCCCCOc1ccc2[nH]cc(CCN)c2c1", "note": "[5-Nonyloxytryptamine]", "values": [{"measurement": "MTT at 1 μm", "setting": "[1]", "value": 114.1}, {"measurement": "MTT at 10 μm", "setting": "[2]", "value": 23.68}]}]}
